The campaign covered roughly 420,000 compounds. About 64,000 (15%) were called active. The shares of active, inactive and inconclusive entries below differ from those in the screen. Calls come from the whole dose curve; as a rule, active = well fitted inhibition curve with a large enough effect; inconclusive = small, poorly fitted or top-dose-only effect; inactive = flat fitted curve, though single readings scatter. No potency is given beside an inconclusive call; the fits are too rough.
assay: qHTS for Inhibitors of human tyrosyl-DNA phosphodiesterase 1 (TDP1): qHTS in cells in absence of CPT; settings: DT40 Tdp1-/- hTDP1 cells, no CPT, ATP luminescence, 48 h; activity change, negative = growth inhibition: at 46.2 µM (top of the series) unless noted; note: nearly all actives have a fitted effect of over 55% in size
In short: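 Chicken DT40 Tdp1-/- cells complemented with human TDP1, screened without camptothecin (DMSO vehicle only), 400 cells/well. Compounds pin-transferred, cells incubated at 37 °C for at least 48 hr. Growth read as ATP-dependent luminescence (CellTiter-Glo, 30 min at RT).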
% is set by controls: 0 for no effect and ±100 for the full control effect; potency is the fitted concentration of half-maximal effect; tags give direction and shape of the fitted curve.

Compound | Potency | activity change, negative = growth inhibition
COc1ccc(C(=O)NC(=S)NCc2ccco2)cc1 | inconclusive [inhibitor, partial curve] | –
CC1Sc2ccc(C(=O)Nc3ccc(S(=O)(=O)N(C)C)cc3)cc2NC1=O (stereo unspecified) | inconclusive [inhibitor, single point] | –
COc1ccc2[nH]cc(CCNc3ncnc4ccc(-c5cccnc5)cc34)c2c1 | active: 23.1 µM | –
CCC[C@@H](NS(=O)(=O)c1ccc(C)cc1)C(=O)Oc1ccc2c3c(c(=O)oc2c1)CCC3 | inconclusive [inhibitor, single point] | –
COc1ccc(Cl)cc1-c1nc(SCC(=O)N(C)C2CCS(=O)(=O)C2)n[nH]1 (stereo unspecified) | – | inactive: 1.93%
O=C(CSCc1ccc(Cl)cc1)Nc1ccccc1C(=O)N1CCOCC1 | inconclusive [inhibitor, partial curve] | –
CCOC(=O)c1c(C)n(C)c2ccc(OC(=O)c3ccoc3)cc12 | – | inactive: -5.34%
CC(=O)c1ccc(N2CCN(S(=O)(=O)c3cc(-c4noc(C)n4)ccc3C)CC2)cc1 | – | inactive: 2.22%
Cc1ccc(Cn2c(CNC(=O)Cc3cccc(C)c3)nc3cccnc32)cc1 | inconclusive [inhibitor, single point] | –
Cn1c(N)c(N2CCCCC2)c(=O)n(CC(=O)Nc2cccc(C#N)c2)c1=O | – | inactive: -2%
COc1ccc(N2CCN(C(=O)c3ccc(CNS(=O)(=O)c4cc(C)ccc4C)cc3)CC2)cc1 | active: 14.6 µM | –
Cc1cc(NC(=S)NC(=O)c2ccco2)c2ccccc2n1 | inconclusive [inhibitor, single point] | –
Cc1cc(NCc2ccco2)n2c(nc3ccccc32)c1C#N | inconclusive [inhibitor, partial curve] | –
CCCCN1C(=O)c2ccc(C(=O)OCC(=O)NCCc3ccc(S(N)(=O)=O)cc3)cc2C1=O | – | inactive: -4.4%
O=C(COC(=O)c1ccccc1Sc1ccc(C(F)(F)F)cc1[N+](=O)[O-])NC(=O)NC1CCCC1 | inconclusive [inhibitor, single point] | –
COCCN1C(=O)c2oc3ccc(C)cc3c(=O)c2C12C(=O)N(C)c1ccccc12 (stereo unspecified) | – | inactive: -2.03%
CCOC(=O)[C@]12CCC=C1N(Cc1cccc3ccccc13)C(=O)[C@H](CC(=O)NCCCN1CCCC1=O)C2 | inconclusive [inhibitor, single point] | –
Cc1ccc(S(=O)(=O)NNc2nc3ccccc3nc2C(F)(F)F)cc1 | active: 18.4 µM | –
O=c1/c(=C/c2ccc(CNS(=O)(=O)c3ccccc3)o2)sc2n1CCN=2 | inconclusive [inhibitor, single point] | –
CN1CCN(c2ncnc3ccc(-c4ccccc4C#N)cc23)CC1 | inconclusive [inhibitor, partial curve] | –
N#CCC(=O)Nc1ccc(C(=O)NCC(c2ccco2)N2CCCCC2)cc1 (stereo unspecified) | – | inactive: -0.0829%
O=C(Cc1ccc2cccnc2c1)c1ccc(O)cc1O | – | inactive: -16.4%
Cc1ccc(-c2nc3ccsc3c(=O)[nH]2)cc1 | – | inactive: -9.16%
Cc1ccccc1-c1nc(CN2CCSCC2)c(C)o1 | inconclusive [inhibitor, single point] | –
COc1ccc2[nH]cc(CCNC(=O)c3cnn(-c4ccc(C)cc4)c3C3CCN(C(=O)OC(C)(C)C)CC3)c2c1 | active: 5.17 µM | –
Cc1cc([N+](=O)[O-])ccc1NCc1ccc2ccccc2c1 | active: 18.4 µM | –

Compound | Potency | activity change, negative = growth inhibition
COc1cc(CCC(=O)Nc2cccc(S(=O)(=O)N(C)C)c2)cc(OC)c1OC | active: 25.9 µM | –
COc1ccc(CCNC(=O)CN2CCN(Cc3ccc(F)cc3)C2=O)cc1OC | inconclusive [inhibitor, single point] | –
COc1ccccc1CNC(=O)c1cnc(SC)nc1C | active: 14.6 µM | –
COc1ccc(C(=O)CCNc2ccc3c(c2)OCCO3)cc1 | active: 13 µM | –
Cc1c(C=O)c2ccccc2n1CC(=O)O | – | inactive: 10.6%
CC(C)N(Cc1ccccc1)C(=O)C1CCCN(c2ncnc3onc(-c4ccc(F)cc4)c23)C1 (stereo unspecified) | active: 5.17 µM | –
COc1ccc(Cl)cc1NC(=O)C(C)N(C)Cc1cccc(Cl)c1Cl (stereo unspecified) | inconclusive [inhibitor, single point] | –
COc1cc(N)c(C(=O)c2nccc3cc(OC)c(OC)cc23)cc1OC | – | inactive: -19.9%
Cc1ccc(-c2ccc(C(=O)NCCCNC(=O)c3cnccn3)o2)cc1Cl | inconclusive [inhibitor, single point] | –
O=C(O)C1=C(C(=O)O)C2C=CC1C2 | – | inactive: -13%
COc1ccc(NC(=O)c2sc3nc4c(c(-c5ccc(OC)cc5)c3c2N)C(=O)CC(C)(C)C4)cc1 | active: 13 µM | –
Cc1cc(-c2ccc(S(=O)(=O)N3CCN(c4ccc(Cl)cc4)CC3)s2)on1 | – | inactive: -8.77%
CCC(=O)Nc1ccc(C(=O)CSc2nc(N)cc(N)n2)cc1 | – | inactive: -0.544%
CCOC(=O)c1ccc(NC(=O)CC2Nc3ccccc3NC2=O)cc1 (stereo unspecified) | inconclusive [inhibitor, single point] | –
CCOC(=O)c1ccc(N2C(=O)c3[nH]nc(-c4ccc(OCC)cc4)c3C2c2cccs2)cc1 (stereo unspecified) | active: 3.66 µM | –
CCN1CCN(C(=O)C(C)Nc2cc(Cl)c(OC)cc2OC)CC1 (stereo unspecified) | – | inactive: -3.49%
Cc1cc2n(n1)CCC(=O)N2Cc1ccc(C(=O)Nc2ccc(F)cc2F)cc1 | inconclusive [inhibitor, single point] | –
O=C(c1ccccc1)C(Sc1ncn[nH]1)c1ccccc1 (stereo unspecified) | – | inactive: -19.9%
O/C(=C\c1nc2ccccc2[nH]1)c1cccs1 | inconclusive [inhibitor, single point] | –
CCCN(CCC)Cc1c(C(=O)N/N=C/c2ccsc2)nnn1-c1nonc1N | inconclusive [inhibitor, single point] | –
CCOC(=O)c1c(-c2ccc(-c3ccccc3)cc2)csc1NC(=O)CNCCN(C)C | active: 23.1 µM | –
O=C(CSc1nc(O)c(Cc2ccccc2)c(=O)[nH]1)Nc1nc2c(s1)CCCC2 | inconclusive [inhibitor, single point] | –
O=C(O)c1cccnc1Sc1ccc(Br)cc1 | – | inactive: -17.8%
COc1ccccc1N1CCN(/N=C/C=C\c2ccco2)CC1 | inconclusive [inhibitor, partial curve] | –
CCSc1nc2sc3c(c2c(=O)n1-c1ccccc1C)CCN(C)C3 | active: 29.1 µM | –
Nc1nnn(-c2ccccc2)c1-c1ccccc1 | – | inactive: -0.742%

Compound | Potency | activity change, negative = growth inhibition
Cc1cc(C(=O)NC2CCCc3c2cnn3-c2ccc(C)c(C)c2)nc(C)n1 (stereo unspecified) | active: 16.4 µM | –
OCCNc1nc2ccc(Cl)cc2[nH]1 | – | inactive: -22.7%
COc1ccc(-c2nc3cnc(N4CCNCC4)nc3n(Cc3cccs3)c2=O)cc1 | inconclusive [inhibitor, single point] | –
O=C(NNC(=O)C1CCN(Cc2ccccc2)CC1)c1cccc(Cl)c1 | – | inactive: -23.8%
S=C(Nc1ccc(Br)cc1Cl)N1CCN(c2ccccn2)CC1 | – | inactive: 9.17%
COc1ccc(C(=O)N2CCCC(C)(C(=O)NS(=O)(=O)C3CC3)C2)cc1 (stereo unspecified) | active: 1.46 µM | –
COc1ccc(NC(=O)COC(=O)/C=C/C(=O)OCC(=O)Nc2ccc(OC)c(Cl)c2)cc1Cl | inconclusive [inhibitor, single point] | –
Cc1ccc(-c2nnc(Nc3ccc(F)cc3)c3ccccc23)cc1S(=O)(=O)N1CCN(C)CC1 | inconclusive [inhibitor, single point] | –
Cc1cc(/C=C(\C#N)C(=O)NCc2ccccc2)c(C)[nH]1 | inconclusive [inhibitor, single point] | –
COC(=O)c1ccccc1NC(=O)Cn1cnc2c(cnn2-c2ccc(C)c(C)c2)c1=O | – | inactive: -21.1%
O=S1(=O)CC(N2CCSCC2)CN1Cc1cn(Cc2ccc(F)cc2)nn1 (stereo unspecified) | – | inactive: -11.4%
CCCC(=O)N(Cc1cc(=O)[nH]c2ccccc12)c1cccc(C)c1 | – | inconclusive: -36.1% [inhibitor]
COc1ccc(OC)c(N2C(=O)c3ccccc3C2c2nnnn2-c2ccc3c(c2)OCCO3)c1 (stereo unspecified) | inconclusive [inhibitor, single point] | –
COc1ccc(Cn2c(=S)[nH]c3cc(C(=O)NCCCN4CCOCC4)ccc3c2=O)cc1 | inconclusive [inhibitor, single point] | –
CC(=O)Nc1ccc(NC(=O)CSc2nnc(-c3ccco3)n2Cc2ccco2)cc1 | inconclusive [inhibitor, single point] | –
CCOc1cccc2c1Oc1nc(-c3ccccc3)nc(SCC(=O)Nc3ccc(F)cc3)c1C2 | inconclusive [inhibitor, single point] | –
Cc1ccc(C(=O)Nc2ccccc2C(=O)NCc2ccco2)cc1S(=O)(=O)N1CCCCC1 | active: 16.4 µM | –
CC(C)(C)c1ccc(S(=O)(=O)N2CCN(C3CCCC3)CC2)cc1 | inconclusive [inhibitor, single point] | –
Cc1cccnc1NC(=O)C1CCCN(S(=O)(=O)c2ccc3c(c2)oc(=O)n3C)C1 (stereo unspecified) | – | inactive: -11.9%
COc1cccc(N2CCN(C(=O)CCCCCn3c(=O)[nH]c4ccccc4c3=O)CC2)c1 | active: 20.6 µM | –
CN(C)S(=O)(=O)c1ccc(C(=O)Nc2ccc(F)cc2F)cc1 | – | inactive: -16.7%
CCOP(=O)(Nc1cccc2oc(=O)c3ccccc3c12)OCC | inconclusive [inhibitor, single point] | –
CC1(C)CC(c2nc(-c3ccc(Cl)cc3)cs2)CCS1 (stereo unspecified) | inconclusive [inhibitor, single point] | –
O=C(O/N=C\c1ccc(N2CCCCC2)c([N+](=O)[O-])c1)c1ccc(Cl)cc1Cl | – | inactive: -23.7%

— PubChem BioAssay AID686978 (National Center for Advancing Translational Sciences (NCATS), 2013)
